Measured values published in a collection of fitness landscapes (doi:10.1016/j.celrep.2020.107928).
Over roughly 81,000 sequences, “one-hybrid fitness for binding NBS DNA” has its median near -0.1; the highest 2% begin near 0.36. Some of the results follow.

B1: Caulobacter ParB omega fusion; a variant is named by its letters at X, in order, B8GW30 (parent)
chain: MESVVVGEPGMSEGRRGLGRGLSALLGEVDAAPAQAPGEQLGGSREAPIEILQRNPDQPRRTFREEDLEDLSNSIREKGVLQPILVRPSPDTAGEYQIVAGERAWRAAQRAGLKTVPIMVRELDDLAVLEIGIIENVQRADLNVLEEALSYKVLMEKFERTQENIAQTIGKSXSHVANXMRLLXLPDEVQSYLVSGELTAXHARAIAAAADPVALAKQIIEGGLSVRETEALARKAPNLSAGKSKGGRPPRVKDTDTQALESDLSSVLGLDVSIDHRGSTGTLTITYATLEQLDDLCNRLTRGI

Variants of: B1
Test: one-hybrid fitness for binding NBS DNA (the Noc-binding site; scaled: cognate 1, non-cognate 0); higher = stronger binding
Conditions: with NBS DNA site
How it was run: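 Values were rescaled so that cognate is 1 and non-cognate is 0. Each is a fitness, the log change in a variant's read ratio to wild type from Illumina reads of plasmids before and after selection, with three replicate libraries pooled and variants under 10 reads dropped. Selection of the Caulobacter ParB libraries, four specificity codons randomised, used E. coli USO with a HIS3 reporter, site 19 bp from the promoter, on M9-minus-histidine with 0.1 mM IPTG and 5 mM 3-AT for 48 hours at 37°C.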

Variant	one-hybrid fitness for binding NBS DNA
HKNT	≤ 0.2
NIST	≤ 0.2
PHVW	≤ 0.2
AMRW	≤ 0.2
QANP	≤ 0.2
LHEN	≤ 0.2
TLNK	≤ 0.2
SCNG	≤ 0.2
VHVQ	≤ 0.2
SPET	≤ 0.2
RTAT	0.499
TMAQ	≤ 0.2
TSPR	≤ 0.2
SPFD	≤ 0.2
CHPC	≤ 0.2
GTAH	≤ 0.2
QYNM	≤ 0.2
HAHL	≤ 0.2
SCQN	≤ 0.2
TKGM	≤ 0.2
WAQI	≤ 0.2
LLDH	≤ 0.2
FRIG	≤ 0.2
DRWC	≤ 0.2
HSYN	≤ 0.2
MSPY	≤ 0.2

Variant	one-hybrid fitness for binding NBS DNA
TRAK	≤ 0.2
RTTR	0.571
DIEI	≤ 0.2
KIAM	≤ 0.2
CMRE	≤ 0.2
SIDL	≤ 0.2
MIPC	≤ 0.2
PEVN	≤ 0.2
VCYR	≤ 0.2
CPTT	≤ 0.2
ISQT	≤ 0.2
KYKS	≤ 0.2
RGAE	≤ 0.2
HTSH	≤ 0.2
IQLC	≤ 0.2
RMQL	≤ 0.2
GDHV	≤ 0.2
IAFT	≤ 0.2
NIPM	≤ 0.2
HSFG	≤ 0.2
VMMR	≤ 0.2
VYSM	≤ 0.2
GEKL	≤ 0.2
YTGW	≤ 0.2
QYTK	≤ 0.2
SGHI	≤ 0.2

Variant	one-hybrid fitness for binding NBS DNA
PKGE	≤ 0.2
VTMP	≤ 0.2
HFYC	≤ 0.2
TPDE	≤ 0.2
VHQG	≤ 0.2
KLHL	≤ 0.2
ISIV	≤ 0.2
ESLV	≤ 0.2
AYQS	≤ 0.2
SASF	≤ 0.2
NALL	≤ 0.2
ARST	≤ 0.2
LGRH	≤ 0.2
ASSV	≤ 0.2
YQSW	≤ 0.2
IYSC	≤ 0.2
RVCI	≤ 0.2
TYHE	≤ 0.2
HNNG	≤ 0.2
LCNV	≤ 0.2
VFET	≤ 0.2
KYTN	≤ 0.2
IKLG	≤ 0.2
LIPL	≤ 0.2
RNTW	≤ 0.2
RQIE	≤ 0.2

Variant	one-hybrid fitness for binding NBS DNA
VWSS	≤ 0.2
DLLV	≤ 0.2
GNVG	≤ 0.2
HNGM	≤ 0.2
LQGV	≤ 0.2
RSDE	≤ 0.2
PLVI	≤ 0.2
CHKT	≤ 0.2
VPYI	≤ 0.2
AEER	≤ 0.2
DTVT	≤ 0.2
CFLM	≤ 0.2
SFIG	≤ 0.2
GTNC	≤ 0.2
CLAY	≤ 0.2
IVQG	≤ 0.2
KWER	≤ 0.2
MSMF	≤ 0.2
KPPV	≤ 0.2
RINV	≤ 0.2
NNPY	≤ 0.2
IIYG	≤ 0.2
LHKR	≤ 0.2
NPNS	≤ 0.2
GWGG	≤ 0.2
YSLN	≤ 0.2

Variant	one-hybrid fitness for binding NBS DNA
TDSH	≤ 0.2
RSPI	≤ 0.2
RCSL	≤ 0.2
MRYG	≤ 0.2
IFTW	≤ 0.2
SPIW	≤ 0.2
SPNY	≤ 0.2
QYQC	≤ 0.2
HYRG	≤ 0.2
PQYR	≤ 0.2
QGIR	≤ 0.2
PEVW	≤ 0.2
HPHG	≤ 0.2
CGSF	≤ 0.2
QCCN	≤ 0.2
NAKF	≤ 0.2
VPKP	≤ 0.2
KTPN	≤ 0.2
EFLV	≤ 0.2
VWKR	0.236
AHSA	≤ 0.2
YWIE	≤ 0.2
SRRF	≤ 0.2
GRME	≤ 0.2
HTCM	≤ 0.2
FPTY	≤ 0.2

Variant	one-hybrid fitness for binding NBS DNA
CRNI	≤ 0.2
NYAN	≤ 0.2
CHHC	≤ 0.2
TDSS	≤ 0.2
VVEF	≤ 0.2
RSDG	≤ 0.2
APHL	≤ 0.2
RMGQ	≤ 0.2
YCSC	≤ 0.2
IPDQ	≤ 0.2
PQSH	≤ 0.2
IMPG	≤ 0.2
MAGT	≤ 0.2
LVKV	≤ 0.2
QKMD	≤ 0.2
ATKE	≤ 0.2
NAVD	≤ 0.2
KRRV	0.276
YRRH	≤ 0.2
MALP	≤ 0.2
RTQK	≤ 0.2
QAAW	≤ 0.2
QKER	0.363
